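Where inhibition never reached the appropriate level, the endpoint shown equals the highest concentration tested. Otherwise, values were interpolated linearly from a five-concentration, 48-hour dose response in 96-well plates. GI50 is the concentration that inhibits growth by half. At the TGI there is no net growth.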
Tested on: NCI-H322M lung
Assay: NCI-60 cell line screen, 48 h

| SMILES | TGI | GI50 |
| --- | --- | --- |
| CCOC(=O)C(C)(c1c(C)[nH]c2ccccc12)c1c(C)[nH]c2ccccc12 | 45.1 µM | – |
| COc1ccc(-c2cc(Nc3ccnc(N4CCOCC4)n3)on2)cc1 | 20.1 µM | 0.615 µM |
| CN1CCc2c(sc3[nH]c(=S)[nH]c(=S)c23)C1 | > 100 µM | – |
| O=c1[nH]c2nc3ccccc3c(=O)n2/c1=C/c1cccs1 | > 100 µM | – |
| CCCO[C@@H]1[C@@H](OC(C)=O)[C@@H](OC(C)=O)C(C)(C)/C=C/[C@H](C)C(=O)[C@@]2(OC(C)=O)C[C@@](C)(OC(C)=O)[C@H](OC(C)=O)[C@@H]2[C@H]2OC(=O)CC[C@@]12OC(=O)c1ccccc1 | > 25 µM | – |
| O=C1OCC2OC(=O)c3cc(O)c(O)c(O)c3-c3c(O)c(O)c(O)c4c3C(=O)OC(C2OC(=O)c2cc(O)c(O)c(O)c2-c2c1cc(O)c(O)c2O)C1OC(=O)C2C4=C(O)C(=O)C23Oc2cc(O)c4c(c2[C@H]13)O[C@H](c1ccc(O)c(O)c1)[C@@H](O)C4 (stereo partly drawn) | > 100 µM | – |
| Cc1ccc2[c](c1)[Sn]([c]1ccccc1)([c]1ccccc1)[c]1cc(C)ccc1N2C | > 100 µM | 58.1 µM |
| COc1cc(-c2nnc3n2NC=C(C(=O)O)S3)cc(OC)c1OC | > 100 µM | – |
| Nc1ccc(C2=N/C(=C\c3cccc(N)c3)C(=O)O2)cc1 | > 100 µM | – |
| CN(C)CCNc1nc2ccccc2c2c(=O)c3cc(F)ccc3sc12 | 2.92 µM | 1.57 µM |
| Cc1cc(C)nc(NC(P(=O)(O)O)P(=O)(O)O)n1 | > 100 µM | – |
| CC(=O)[CH-]C(=O)c1ccccc1.CC(=O)[CH-]C(=O)c1ccccc1.O=S(=O)([O-])c1cc([O-])c2c([O-])cc(S(=O)(=O)[O-])cc2c1.[Na+].[Ti+4] | > 100 µM | > 100 µM |
| CCOC(=O)CCC(NC(=O)c1ccc(NCc2ccc3nc(-c4ccccc4)c(Cl)nc3c2)cc1)C(=O)OCC (stereo not drawn) | > 100 µM | – |
| N/C(=N\S(=O)(=O)c1ccc(-c2ncccc2C(F)(F)F)s1)Nc1ccc(Cl)cc1 | 27.6 µM | – |
| Cc1ccc(N2C(=O)N(c3ccc(C)cc3)C3(SC=NN3C)C2=O)cc1 (stereo not drawn) | > 100 µM | – |
| COc1cc(/C=C2\CCC/C(=C\c3ccc(OCC4CO4)c(OC)c3)C2=O)ccc1OCC1CO1 (stereo not drawn) | > 100 µM | 5.68 µM |
| COc1cc2c3c(n(CCCN(C)CCO)c(=O)c2cc1OC)-c1cc2c(cc1C3=O)OCO2 | 98.6 µM | 21 µM |

| SMILES | TGI | GI50 |
| --- | --- | --- |
| NCCCN(CCCN)CCc1cn(C(=O)c2ccccc2)cn1 | 26.9 µM | – |
| COc1cc(/C=C/C(=O)C(C(=O)/C=C/c2ccc(OC(=O)CCNC34CC5CC(CC(C5)C3)C4)c(OC)c2)C(=O)CCNC23CC4CC(CC(C4)C2)C3)ccc1OC(=O)CCNC12CC3CC(CC(C3)C1)C2 (stereo not drawn) | 26.2 µM | 12.8 µM |
| COCn1cnc2c(=O)nc(SC)n(-c3ccccc3)c21 | > 100 µM | – |
| CC(=O)NC1C(Sc2ncn(C3OC(CO)C(O)C(O)C3NC(C)=O)n2)OC(CO)C(O)C1O (stereo not drawn) | > 100 µM | – |
| Cc1c2c(C(N)=O)nccc2c(C)c2c1c1ccccc1n2Cc1ccccc1 | 39.8 µM | – |
| CC(NC(=O)Cc1ccccc1)NC(=O)C(C)C(=O)NCc1ccccc1 (stereo not drawn) | > 100 µM | – |
| COC(=O)[C@@H](NC(=O)N(Cc1ccccc1)C[C@H](CC(C)C)NC(=O)[C@@H](NC(=O)OC(C)(C)C)C(C)C)C(C)C | > 100 µM | – |
| CNCCn1c(=O)c2cc(OC)c(OC)cc2c2cnc3cc4c(cc3c21)OCO4 | 1.49 µM | 0.0358 µM |
| NCCCOc1cc2ccccc2cc1C(=O)NCCCOc1cc2ccccc2cc1C(=O)Nc1ccc(Cl)cc1O | 3.05 µM | 1.45 µM |
| CCOC(=O)c1c(OCC)[nH]c(=O)c(C(c2cccs2)c2c(O)c(C(=O)OCC)c(OCC)[nH]c2=O)c1O | 52.1 µM | – |
| CN1CCN(/C(N)=C(\C#N)C(=O)Nc2ccc(Cl)cc2)CC1 | > 100 µM | – |
| O=c1[nH]nc(Cc2ccc(Cl)cc2)n1/N=C/c1cccs1 | > 100 µM | – |
| CCOC(=O)c1ccc(-c2ccc(Cl)cc2)[nH]1 | > 10 µM | – |
| Cn1cc(S(=O)(=O)N2CCC3=Cc4c(cnn4-c4ccc(F)cc4)C[C@]3(C(=O)c3cc(C(F)(F)F)ccn3)C2)cn1 | > 100 µM | > 100 µM |
| CC1(C)O[C@H]2OC(CO)C(N=[N+]=[N-])[C@H]2O1 (stereo partly drawn) | > 100 µM | – |
| Cc1ccc2c(c1-c1ccccc1)C(=O)OC2 | > 100 µM | – |
